Reference: PubChem BioAssay AID1347073 (National Center for Advancing Translational Sciences (NCATS), 2019)
Among all 45,000 compounds or so, about 200 (0.44%) were called active. Another 7% or so got no clear call; they are omitted. Calls follow the shape of the dose curve; as a rule, active = well fitted activation curve with a large enough effect; inconclusive = small, poorly fitted or top-dose-only effect; inactive = no such curve, though single readings can be large or run the other way. The list shows a part of the results.

Test: qHTS of TDP-43 Inhibitors: NCGC Sytravon Library Screen; also: 0% is about no effect; nearly all actives have a fitted effect of over 55% in size
Details: yeast TDP-43 toxicity rescue, BacTiter-Glo growth, 24 h; series mostly up to 46.1 µM; growth rescue (activation): at the top concentration
Method in brief: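 TDP-43-expressing yeast, pregrown in raffinose, seeded at OD600 0.02 in galactose medium with compound for 24 hr at 30 deg C. Growth read by BacTiter-Glo luminescence, so rescue of toxicity appears as activation.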

Row | SMILES | growth rescue (activation)
1 | Cc1ccc(NC(=O)CNCc2cccs2)cc1Br | inactive: -19.2%
2 | CCc1nnc2cccc(Cl)n12 | inactive: -12%
3 | C=CCC1C=C(C)CC(CC=C)N1 (configuration not stated) | inactive: 10.9%
4 | Cc1ccc(NC(=S)N2CCCC(CO)C2)c(C)c1 (configuration not stated) | inactive: 2.74%
5 | COc1nc(N(C)C)nc(N(C#N)S(=O)(=O)c2ccc(C)cc2)n1 | inactive: 5.69%
6 | c1ccc(-c2nc(NCc3cccs3)c3ccccc3n2)cc1 | inactive: 10.1%
7 | CN1CCN(c2nc(-c3cccc([N+](=O)[O-])c3)nc3ccccc23)CC1 | inactive: -22.5%
8 | O=C1S/C(=C/c2ccccc2F)C(=O)N1CCN=C1NS(=O)(=O)c2ccccc21 | inactive: 14.5%
9 | CCOc1ncccc1C(=O)Nc1cc(S(=O)(=O)N2CCOCC2)ccc1OCC(F)(F)F | inactive: -21%
10 | COc1ccc(C2NC(=O)NC(C)=C2C(=O)Nc2ccccc2)cc1OC (configuration not stated) | inactive: -13.5%
11 | O=C(c1ccc(Cl)cc1)C(CN1CCCCC1)c1ccccc1 (configuration not stated) | inactive: 29.3%
12 | Cc1ccccc1C(=O)N/N=C1/SCC(=O)N1Cc1ccc2c(c1)OCO2 | inactive: 3.13%
13 | Cc1ccc(N(C(=O)c2csnn2)C(C(=O)NC(C)(C)C)c2ccccn2)cc1 (configuration not stated) | inactive: 4.63%
14 | CCc1cccc(NS(=O)(=O)c2ccc3c(c2)CCC(=O)N3)c1 | inactive: 1.53%
15 | CCN(CC)S(=O)(=O)c1cccc(NC(=O)CSc2nc3ccccc3[nH]2)c1 | inactive: -8.25%
16 | COc1ccc2cc(C)c3nnc(SCc4cccnc4)n3c2c1 | inactive: -1.49%
17 | Cc1cccc(NC(=O)CSc2nnc(NC(=O)C3CC3)s2)c1C | inactive: 1.87%
18 | CCCCn1c(=O)[nH]c(=O)c2c1nc(-c1ccc([N+](=O)[O-])cc1)n2CC | inactive: 7.95%
19 | Cc1ccc(C(C(=O)NCc2ccccc2)N(Cc2ccco2)C(=O)c2snc(C(N)=O)c2N)o1 (configuration not stated) | inactive: -6.23%
20 | COc1cc(/C=N/NC(=O)c2cccnc2)ccc1OC(=O)c1cc(OC)c(OC)c(OC)c1 | inactive: -2.09%
21 | CC1CCCC(NC(=O)CN2CCN(S(=O)(=O)c3ccc(Br)s3)CC2)C1C (configuration not stated) | inactive: 20.3%
22 | COc1ccccc1NC(=O)Nc1ccncc1 | inactive: -12.2%

Row | SMILES | growth rescue (activation)
23 | COc1ccc(-c2cc(CCCC(=O)NCCc3ccccc3)no2)cc1 | inactive: 11.7%
24 | Cc1ccc(NC(=O)C(C)OC(=O)c2ccc(NS(=O)(=O)c3ccc(F)c(F)c3)cc2)cc1 (configuration not stated) | inactive: 2.68%
25 | COc1cc2c(cc1OC)CN(C(=O)Cc1ccccc1)CC2 | inactive: 20.6%
26 | Cc1ccc(S(=O)(=O)N2CCN(C(=O)NCc3ccc(C(=O)O)cc3)CC2)cc1 | inactive: -5.36%
27 | CN(CC(=O)Nc1ccccc1Br)CC(=O)Nc1ccccc1C(F)(F)F | inactive: 19.7%
28 | O=C(COC(=O)c1ccc2c(c1Cl)C(=O)c1ccccc1C2=O)NC1CCCCC1 | inactive: 14.9%
29 | COc1ccc(/C=C/C2=CCN(Cc3ccc(OC)cc3)CC2)cc1 | inactive: -8.94%
30 | O=C(Cc1cn2ccsc2n1)Nc1cccc2cnccc12 | inactive: 14.2%
31 | COc1ccc(NC(=O)COC(=O)C2CCN(C(=O)c3ccc(Cl)cc3)CC2)c([N+](=O)[O-])c1 | inactive: 6.87%
32 | CCOC(=O)c1ccc(NC(=O)c2cccc(S(=O)(=O)N3CCOCC3)c2)cc1 | inactive: 16.8%
33 | Cc1cccc2cc(CN(Cc3ccco3)C(=O)c3ccncc3)c(=O)[nH]c12 | inactive: -8.66%
34 | COc1ccccc1CC(NC(C)=O)C(=O)NC1CCN(C(=O)Nc2ccccc2F)CC1 (configuration not stated) | inactive: 8.95%
35 | CC1(Cc2ccc(Cl)cc2)C(=O)Nc2ccc(S(=O)(=O)NC3CCCCC3)cc21 (configuration not stated) | inactive: 14.1%
36 | CSc1nc(SCC(=O)NCC2CCCO2)c2c3c(sc2n1)CN(C)CC3 (configuration not stated) | inactive: -12.2%
37 | Cc1cccc(C)c1OCc1cc(C(=O)N(C)Cc2nc3ccccc3[nH]2)no1 | inactive: -9.44%
38 | CCOC(=O)c1sc(NC(=O)CSc2nccn2C)nc1C | inactive: 7.06%
39 | CC(c1ccco1)N(C(=O)c1ccc(Cl)c([N+](=O)[O-])c1)c1ccccn1 (configuration not stated) | inactive: 18.6%
40 | CCN(CC)S(=O)(=O)c1cc(NC(=O)CN2C(=O)NC(C)(c3ccccc3)C2=O)ccc1C (configuration not stated) | inactive: 10.3%
41 | O=C(NC1CC2CCCC(C1)N2C(=S)Nc1ccc(Cl)cc1)C1CC1 (configuration not stated) | inactive: 3.75%
42 | Cc1ccc(-c2noc(CN3CCC(C(N)=O)CC3)n2)cc1 | inactive: 28.7%
43 | CCOC(=O)c1c(NC(=O)c2cc(OCC)c(OCC)c(OCC)c2)sc2c1CCCCC2 | inactive: 0.0143%
44 | Cc1ccc(CNC(=O)C2CCN(S(=O)(=O)c3cccc4nonc34)CC2)cc1 | inactive: -2.88%

Row | SMILES | growth rescue (activation)
45 | Nn1c(SCC(=O)N2CCc3ccccc3C2)nnc1-c1cccs1 | inactive: 9.4%
46 | Cn1cccc1-c1cc(C(=O)N2CCc3c([nH]c4ccccc34)C2c2ccccn2)[nH]n1 (configuration not stated) | inactive: 5.69%
47 | O=C(NNC(=O)c1cccc(O)c1)Nc1ccc([N+](=O)[O-])cc1 | inactive: 17%
48 | O=C(Cn1nnc(-c2ccccc2)c1COc1ccc2ccccc2c1)NCC1CC1 | inactive: 22.1%
49 | Cc1occc1C(=O)N/N=C/C(Br)=C\c1ccccc1 | inactive: 21.4%
50 | COc1ccc(C2C(C#N)=C(N)OC3=C2C(=O)CC(C)(C)C3)cc1OC (configuration not stated) | inactive: 1.27%
51 | CCc1nc2ccc(C(=O)NCCCN(C)C)cn2c1N(C)CCCc1ccccc1 | inactive: -7.29%
52 | O=C(O)CCSc1nnc(COc2cccc3cccnc23)n1-c1ccccc1 | inactive: 6.12%
53 | CC(C)c1ccc(/C=N/NC(=O)CC(=O)NCc2ccccc2)cc1 | inactive: 2.38%
54 | Cc1ccc(S(=O)(=O)NCCc2cc3ccc(C)cc3[nH]c2=O)cc1 | inactive: -3.34%
55 | C=CCNC(=S)NNC(=O)c1ccc(C)c(Cl)c1 | inactive: 8.41%
56 | COc1ccc(/C=C(\NC(=O)c2ccc(OC)c(OC)c2)C(=O)N2CCN(C)CC2)cc1 | inactive: -2.28%
57 | COc1ccc2cc(C(=O)NCC(=O)O)sc(=O)c2c1OC | inactive: 27.2%
58 | CCC(=O)N/N=C/c1ccc(OS(=O)(=O)c2ccccc2)cc1 | inactive: 17.7%
59 | O=C(C1CC1)N1N=C(C2CCCCC2)CC1(O)C(F)(F)F (configuration not stated) | inactive: 12.9%
60 | Cc1ccc2[nH]c(=O)c(CN3CCCCC3)c(-c3ccccc3)c2c1 | inactive: -3.23%
61 | Cc1cc(C(=O)NCc2ccccc2Cl)c2ccccc2n1 | inactive: 16%
62 | Fc1ccc(CNc2ncccn2)cc1 | inactive: 24.5%
63 | CC(=O)Nc1ccc(C(=O)NNC(=O)c2cccs2)cc1 | inactive: 6.63%
64 | COC(=O)C(NC(C)=O)(Nc1ccc(C)cn1)C(F)(F)F (configuration not stated) | inactive: 0.274%
65 | CCCCN(CC)Cc1ccc(CNC(=S)Nc2ccccc2F)o1 | inactive: -15.1%
66 | CC(C(=O)N1CC2(C)CC1CC(C)(C)C2)N1C(=O)c2ccccc2C1=O (configuration not stated) | inactive: 0.828%

Row | SMILES | growth rescue (activation)
67 | OCCC1CN(Cc2cn[nH]c2C2CCCCC2)CCN1C1CCCC1 (configuration not stated) | inactive: 14.8%
68 | COc1ccc(/C=N/NC(=O)c2ccc(COc3cccc4cccnc34)cc2)cc1O | inactive: -3.95%
69 | Cc1noc(C(=O)Nc2ccc(F)c(Cl)c2)c1Cl | inactive: -2.32%
70 | O=C(CN1CCN(Cc2ccccc2Cl)CC1)N/N=C/C=C/c1ccco1 | inactive: 2.66%
71 | COc1ccc(Nc2ncnc3sccc23)c(OC)c1 | inactive: -16.4%
72 | Cc1ccc(-n2c(-c3cnccn3)n[nH]c2=S)c(Br)c1 | inactive: 2.47%
73 | COc1ccc2c3c(cccc13)OC2=O | inactive: 22%
74 | O=C(O)CCCCCN1C(=O)C(O)=C(C(=O)/C=C/c2ccccc2)C1c1ccc2c(c1)OCO2 (configuration not stated) | inactive: -13.5%
75 | COC(=O)c1ccc2c(=O)[nH]c(CCl)nc2c1 | inactive: -12.9%
76 | COc1cc(NC(=O)c2cccs2)c(C(=O)OCC(=O)c2cc(C)n(-c3ccccc3)c2C)cc1OC | inactive: 6.12%
77 | COc1cccc(OCc2cc(/C=N/n3cncn3)ccc2OC)c1 | inactive: 10%
78 | COc1ccc(CCN(C)C(=O)Cn2c(=O)oc3ccccc32)cc1OC | inactive: -9.43%
79 | CCOc1cc(NC(=S)NCCCN(C)C)c(OCC)cc1NC(=O)c1cccs1 | inactive: 14.8%
80 | O=C(NCc1ccccc1Cl)c1ccc(CSc2nc3ccncc3[nH]2)cc1 | inactive: -5.27%
81 | O=C(CCl)NC1(C(F)(F)F)C(=O)Nc2c1c(=O)[nH]c(=O)n2-c1ccccc1 (configuration not stated) | inactive: -4.84%
82 | O=C(NCCN1C(=O)S/C(=C\c2ccccc2)C1=O)c1cc(S(=O)(=O)N2CCOCC2)c(Cl)cc1Cl | inactive: 5.8%
83 | O=C(CSc1nnnn1C1CCCC1)N1CCCCC1 | inactive: 12.1%
84 | O=C(CC1SC(=Nc2ccccc2)N(CCO)C1=O)Nc1ccccc1 (configuration not stated) | inactive: -5.52%
85 | CCN(CC)S(=O)(=O)c1ccc(Cl)c(NC(=O)COc2ccc(OC)cc2[N+](=O)[O-])c1 | inactive: 5.87%
86 | COc1ccc(CSc2nnc(C)s2)cc1F | inactive: 13.2%
87 | Fc1ccccc1NC(=S)NCc1ccc2c(c1)OCO2 | inactive: 11.1%
88 | Cc1ccnc(NC(=O)CS(=O)(=O)c2ccccc2)c1 | inactive: 1.85%

Row | SMILES | growth rescue (activation)
89 | CN1CCN(C(=O)c2cc(Cl)cc(Cl)c2)CC1 | inactive: 4.89%
90 | CC1(C)CC(c2nc(-c3ccccc3)cs2)CCS1 (configuration not stated) | inactive: -13.1%
91 | Nc1cc(S(=O)(=O)N2CCOCC2)ccc1N1CCCCC1 | inactive: 19.7%
92 | Cc1c(Cl)c([N+](=O)[O-])nn1CC(=O)N1CCCc2ccccc21 | inactive: -9.86%
93 | Cc1nc(SCC(=O)N2CCOCC2)c2c(=O)n(C)c(=O)n(CC(C)C)c2n1 | inactive: 8.94%
94 | O=C(CN(Cc1ccc(F)cc1)C(=O)CCC(=O)Nc1ccccn1)NCCc1ccccc1 | inactive: 2.28%
95 | O=C(O)CC(SCC(=O)Nc1ccc(S(=O)(=O)N2CCCC2)cc1)C(=O)O (configuration not stated) | inactive: -8.49%
96 | O=C(CCCSc1ccccc1)Nc1nc(-c2ccccn2)cs1 | inactive: -81%
97 | c1ccc(-c2nnc(Cn3c4ccccc4c4nc5ccccc5nc43)o2)cc1 | inactive: 13.7%
98 | CCOc1ccc(N2CC(C(=O)Nc3ccccn3)CC2=O)cc1 (configuration not stated) | inactive: 4.46%
99 | COc1ccc(CN2CCN(C(=O)c3ccc(S(=O)(=O)N4CCCCCC4)cc3)CC2)cc1 | inactive: 4.67%
100 | COc1ccc(C2CC(c3ccccc3)=NN2C(=O)COC(=O)c2cnc(Cl)c(Cl)c2)cc1 (configuration not stated) | inactive: 12.4%
101 | Cc1c(C(=O)Nc2nc3ccccc3[nH]2)oc2c(Cl)cccc12 | inactive: -5.26%
102 | O=C1/C(=C/c2ccncc2)SC(=S)N1C1CCCCC1 | inactive: 16.6%
103 | CCOC(=O)N1CCN(C(=O)Cn2cc3c(n2)CCCC3)CC1 | inactive: -0.579%
104 | NC(=O)c1nsc(C(=O)N(c2cccc(F)c2)C(C(=O)NC2CCCC2)c2ccco2)c1N (configuration not stated) | inactive: 6.11%
105 | O=C(O)c1ccc(N2C(=O)c3cccc4c(C(=O)O)ccc(c34)C2=O)cc1 | inactive: -60.6%
106 | COc1ccc(S(=O)(=O)/N=C2/NC(=O)/C(=C\c3ccco3)S2)cc1 | inactive: 8.25%
107 | CN(Cc1ccsc1)C(=O)Cn1cc(Br)ccc1=O | inactive: -17.8%
